SMILES strings stand for the structures. Out of some 52,000 compounds screened, about 1,700 (3.3%) were called active. Rule as the data show it: active = survival mostly below about 52% (no sharp cut-off); inactive = mostly above about 56%. This is one part of the list.

The assay relates to Wild type. The assay is described as follows: S. aureus survival, RN4220 and DeltatarO strains – OD600, teichoic acid synthesis inhibitors, primary screen (AID 463173). To be noted: S. aureus RN4220 wild type/DeltatarO growth, OD600, 18 h, hits give low values, screened at 18.75 µg/mL (by protocol).
Regarding `Cc1cccc(C)c1OCC(=O)NCC1(N2CCOCC2)CCCCC1`, the survival is inactive: 95%. To `CC1=NCC(=O)Nc2cc3c(cc21)OCCO3` belongs inactive: 111%. For the molecule `CCCOc1ccc(C(=O)Nc2cccc(-c3nc4ccccc4[nH]3)c2)cc1`, the survival is inactive: 49%. To `Cc1ccc(-c2nc(C)c(CCNC(=O)C(=O)Nc3ccc4c(c3)OCCO4)s2)cc1` belongs inactive: 59%; to `COc1cc(N(C(=O)c2ccco2)C(C(=O)NC2CCCC2)c2ccc(C)cc2)ccc1-n1cnnn1` (stereo not given), inactive: 105%; to `CCOc1cc(CN2CCN(CC3CC4C=CC3C4)CC2)ccc1OC` (stereo not given), inactive: 119%. As to `CN1CCN(c2ncnc3c2cnn3-c2ccccc2)CC1`, the survival is inactive: 99%.

As to `CC1(C)O[C@H]2[C@@H](O1)[C@@H](C(=O)Nc1ccccc1O)O[C@@H]1OC(C)(C)O[C@@H]12`, the survival was inactive: 124%. In the case of `CCc1ccc(-c2nn(CC(=O)NC3CCCC3)c3c2cnc2ccc(C)cc23)cc1`, the survival was inactive: 32%. To `CCOc1cc(C2C(C(=O)OC)=C(C)NC3=C2C(=O)c2ccccc23)ccc1O` (stereo not given) belongs inactive: 71%. To `O=C(Nc1ccc(N2CCC(N3CCCCC3)CC2)c(C(=O)O)c1)c1ccc(Br)cc1` belongs inactive: 75%; to `CCC(CC)C(=O)Nc1cccc(-c2nc3cccnc3s2)c1C`, inactive: 110%.

Regarding `COc1ccc(-n2nc3ccc(NC(=O)c4cc5ccccc5o4)cc3n2)cc1Cl`, the survival was inactive: 139%.

On to `CCOc1ccc(CNC(=O)C2CCCN(c3nc4c(C)cc(C)cc4s3)C2)cc1` (stereo not given), for which the survival is inactive: 91%.

On to `COc1ccccc1-c1nc(S(=O)(=O)c2ccc(Cl)cc2)c(N2CCCCCC2)o1`, for which the survival was inactive: 70%.

`Cc1ccc(C(C)C)c(OCC(=O)Nc2c(C(=O)c3ccccc3)oc3ccccc23)c1`: the survival was inactive: 80%. As for `Cc1ccc(CN2C(=O)c3ccccc3C2C(=O)NC2CCCCCC2)cc1` (stereo not given), the survival is inactive: 82%. Regarding `Cc1ccc(NC(=O)c2sc3ccccc3c2Cl)cc1`, the survival is inactive: 76%. As for `CCOc1ccccc1NC(=O)c1c(C)cc(C)nc1SCC(=O)c1cccc(OC)c1`, the survival is inactive: 80%. The result for `Cc1cc(O)c(C(c2ccc(F)cc2)N2CCCCC2)c(=O)n1Cc1ccco1` (stereo not given) reads inactive: 71%; that for `CCc1ccc(-n2nc(C)c3c(C(=O)Nc4cccc(C(F)(F)F)c4)cc(C)nc32)cc1`, active: -3%.

For `O=C(Nc1cccc(C(=O)N2CCCCC2)c1)c1nsc2ccccc12`, the survival is inactive: 65%. To `Cc1cc(Nc2cccc(C(F)(F)F)c2)nc2ccc(NC(=O)c3ccc(N(C)C)cc3)cc12` belongs inactive: 100%. Consider `CCOC(=O)CSc1nnc(CNc2ccc(F)cc2)o1`, for which the survival is inactive: 99%.

On to `COc1ccc(CNC(=O)CCn2nc(C)c3c(C)n(-c4ccccc4)nc3c2=O)cc1OC`, for which the survival is active: -2%.

For the molecule `Cc1cccc(C)c1Nc1c(-c2ccsc2)nc2ccccn12`, the survival was inactive: 34%.

Take `Cc1cccn2c(=O)c(/C=C(\C#N)c3nc4ccccc4n3C)c(Oc3ccc(Br)cc3)nc12`: the survival is inactive: 68%. Consider `Cc1ccc(NC(=O)CCCn2nc(C)c3c(C)n(-c4ccccc4)nc3c2=O)cc1Cl`, for which the survival was inactive: 73%. In the case of `O=C(CN1CCN(c2ccc(Cl)cc2)CC1)Nc1ccc(F)cc1F`, the survival was inactive: 100%. The result for `CN1C(=O)c2ccccc2Sc2ccc(NC(=O)Nc3ccccc3F)cc21` reads inactive: 117%; that for `CCOC(=O)CC1CN(C)CCN1C` (stereo not given), inactive: 85%; that for `CCOc1ccc(N(CC(=O)Nc2ccc(F)cc2F)S(=O)(=O)c2c(C)[nH]c(=O)[nH]c2=O)cc1`, inactive: 72%. The result for `COc1ccc(CN(CCC(c2ccc3c(c2)OCO3)c2ccccc2OC)C(C)=O)cc1` (stereo not given) reads active: 8%; that for `CCOCCCn1c(=N)c(S(=O)(=O)c2ccc(C)cc2)cc2c(=O)n3cccc(C)c3nc21`, inactive: 77%; that for `COc1ccc(CNC(=O)C(=O)NCC(c2cccs2)S(=O)(=O)c2ccc(F)cc2)cc1` (stereo not given), inactive: 80%.

Take `CCOC(=O)c1ccc(OCC2c3cc(OC)c(OC)cc3CCN2C(=O)Cc2ccc(F)cc2)cc1` (stereo not given): the survival is inactive: 54%. The result for `CC(=O)N1CCCc2cc(S(=O)(=O)N(C)CC(=O)Nc3ccc(F)cc3Cl)ccc21` reads inactive: 70%. As to `CCc1nn(CC(=O)NC(C)C)c(=O)c2cc3cc(F)ccc3n12`, the survival was inactive: 71%. `Cc1ccc(NC(=O)c2c(Nc3ccccc3C)sc(C(=O)c3ccccc3)c2N)cc1`: the survival was inactive: 72%.

As to `S=C(NC12CC3CC(CC(C3)C1)C2)N1CCOCC1`, the survival was inactive: 113%. For `O=C(Cn1c(SCC(=O)Nc2ccc(F)cc2)nc2ccccc21)NCc1ccc(F)cc1`, the survival is inactive: 63%. Regarding `Cc1ccc(Cl)cc1NC(=O)c1cnc(N2CCCCC2)c2ccccc12`, the survival is inactive: 90%. `CCOC(=O)C1CCN(S(=O)(=O)c2cc(Br)cc3c2N(C(=O)CC)CC3)CC1`: the survival was inactive: 64%. In the case of `CCCC(=O)NCC1(N(C)C)CCCCC1`, the survival is inactive: 89%. Regarding `CC(C)Oc1ccc(C2CC(=O)N(Nc3ccccc3)C2=O)cc1` (stereo not given), the survival was inactive: 95%.

For `N#Cc1ccc(C(=O)Nc2cc3nn(-c4ccccc4)nc3cc2Cl)c(F)c1`, the survival was inactive: 130%.

Turning to `CCOc1cc2sc(N3CCC(C(=O)Nc4ccc(C)cc4C)CC3)nc2cc1Br`, the survival is inactive: 83%.

As for `COc1ccccc1NC(=O)C(=O)NCC(c1ccc2c(c1)OCO2)N1CCN(C)CC1` (stereo not given), the survival was inactive: 81%. The result for `CCN1CCN(c2ncc3c(n2)CCN(Cc2cc(F)cc(F)c2)C3)CC1` reads inactive: 57%. The result for `COc1ccc(-c2nc3scc(CCNS(=O)(=O)c4ccc(C)cc4)n3n2)cc1` reads inactive: 81%; that for `COc1ccc(NC(=O)C(=O)NCCc2csc(-c3ccc(Cl)cc3)n2)cc1OC`, inactive: 91%; that for `Cc1ccc2[nH]c(=O)c(CC3CC(c4ccccc4)=NN3C(=O)CCC(=O)O)cc2c1` (stereo not given), inactive: 99%. As to `Cc1cccc(C(=O)Nc2c(-c3ccccc3)nc3cc(C)ccn23)c1`, the survival was inactive: 48%. The result for `CC(C)N(C(=O)Cn1nnc2c(cnn2-c2ccccc2)c1=O)C(C)C` reads inactive: 113%; that for `Cn1c(=NC(=O)c2ccc(S(=O)(=O)N3CCCc4ccccc43)cc2)sc2cc(F)ccc21`, inactive: 78%; that for `CC(C)OCCCn1c(=O)c2ccccc2n2c(-c3ccc(F)cc3)nnc12`, inactive: 94%. As to `COc1ccc(S(=O)(=O)N(CC(=O)Nc2ccccc2Br)Cc2ccccc2)cc1`, the survival was inactive: 77%. To `CCOC(=O)COc1ccc([N+](=O)[O-])cc1-c1ccnc2cc(-c3ccc(Cl)cc3)nn12` belongs inactive: 65%. Take `O=C(O)C1C(c2ccccc2)C(C(=O)N2CCCCC2)C1c1ccccc1` (stereo not given): the survival is inactive: 103%. Regarding `COC(=O)c1ccc(NC(=O)CSc2nc(=O)[nH]c3c2CCCC3)cc1`, the survival is inactive: 71%. As to `CCOC(=O)c1cnc2[nH]c3ccccc3n2c1=O`, the survival was inactive: 103%.

Take `CCc1ccc(CN(Cc2ccco2)c2cnc(S(C)(=O)=O)nc2C(=O)Nc2cccc(C)c2)cc1`: the survival is inactive: 87%. With `CN(C)c1ccc(C(CNC(=O)c2ccccc2)N2CCc3ccccc32)cc1` (stereo not given), the survival is inactive: 82%. `O=C(c1cn(CC(=O)N2CCOCC2)c2ccccc12)C1CC1`: the survival is inactive: 92%. As for `COc1ccccc1CNc1nc(-c2ccco2)nn1S(=O)(=O)c1ccc2ccccc2c1`, the survival is inactive: 116%. In the case of `COCC(=O)N(CCc1ccccc1)Cc1cc2cccc(C)c2n2nnnc12`, the survival is inactive: 115%. Regarding `CCC1=Nc2cc(C(=O)NCCCOC)ccc2Sc2ccc(Br)cc21`, the survival is inactive: 66%.

As for `O=C(c1cc2nc(-c3ccccc3)cc(-c3ccccc3)n2n1)N1CCCC1`, the survival is inactive: 100%.

On to `CC(C)CC(=O)Nc1cccc(-c2nc3ccccc3[nH]2)c1`, for which the survival was inactive: 95%. To `Cc1cccc(-c2noc(-c3ccccc3OCC(=O)Nc3ccc([N+](=O)[O-])cc3)n2)c1` belongs inactive: 84%.

Take `Cc1ccc(SCCNC(=O)CN(c2ccccc2)S(=O)(=O)N(C)C)cc1`: the survival is inactive: 69%.

For the molecule `Cc1ccc(S(=O)(=O)NC(=O)NC(C)(C)C)cc1`, the survival was inactive: 87%. To `CNC(=O)C1CCC(Cn2c(=O)c3sccc3n(CC(=O)NCc3ccccc3)c2=O)CC1` (stereo not given) belongs active: 0%; to `COCCCNC(=O)c1oc2c(c1C)-c1nn(Cc3ccccc3Cl)cc1CC2`, inactive: 84%. Take `COC(=O)C1(c2ccccc2)NC(c2cccs2)C2C(=O)N(C)C(=O)C21` (stereo not given): the survival was inactive: 110%. The result for `Cc1ccccc1C(=O)Nc1sc2c(c1C(=O)NCc1ccco1)CCC(C(C)(C)C)C2` (stereo not given) reads inactive: 88%; that for `CCN1CCc2nc3sc(C(=O)Nc4cccc(Cl)c4C)c(N)c3cc2C1`, inactive: 149%.

Take `CC1CCC(C(=O)NC(C(=O)OCC(=O)c2ccccc2)C(C)C)CC1` (stereo not given): the survival was inactive: 91%.

In the case of `CCOc1cc(C(=O)OCc2cc(=O)n3nc(CC)sc3n2)cc(OCC)c1OCC`, the survival is inactive: 82%. As to `Cc1ccccc1-c1nnc(NC(=O)CC(C)C)s1`, the survival is inactive: 116%.

Regarding `CCC(=O)N1CCc2cc(Br)cc(S(=O)(=O)N3CCCC(C(=O)Nc4ccc(C(C)C)cc4)C3)c21` (stereo not given), the survival was inactive: 106%. With `CCc1cnc2c(c1SCC(=O)c1ccccc1)c(=O)n(C)c(=O)n2C`, the survival was inactive: 69%. The result for `O=c1cc(CSc2ccc(Cl)cc2)[nH]c(=S)[nH]1` reads inactive: 107%. Regarding `O=C(Nc1cccc(-c2nnn(CC(=O)N3CCc4ccccc4C3)n2)c1)C1CCC1`, the survival was inactive: 112%. Consider `COC(=O)c1ccccc1NC(=O)c1c(C)oc2ncn(C)c(=O)c12`, for which the survival was inactive: 95%.

As to `COc1ccc(OCc2nc3ccccc3n2Cc2ccccc2Cl)cc1`, the survival was inactive: 72%. With `CCCCC(=O)N(c1ccc2oc(C)c(C(C)=O)c2c1)S(=O)(=O)c1ccc(F)cc1C`, the survival is inactive: 70%.

Turning to `CCOc1sc2nc(C)n(CC(=O)Nc3cccc(C)c3)c(=O)c2c1C`, the survival is inactive: 128%. With `Cc1nn(-c2ccccc2)c2sc(C(=O)N/N=C/c3ccccc3)cc12`, the survival is inactive: 109%. The result for `COc1ccc(-c2ccc(NS(=O)(=O)c3ccc(OC)c(OC)c3)cc2)nn1` reads inactive: 75%.
